Each structure is given as a SMILES string. Screen size: about 52,000 compounds; about 1,700 (3.3%) were called active. Rule as the data show it: active = survival mostly below about 52% (no sharp cut-off); inactive = mostly above about 56%. Some of the results follow.

The assay relates to Wild type. The assay can be described thus: S. aureus survival, RN4220 and DeltatarO strains – OD600, teichoic acid synthesis inhibitors, primary screen (AID 463173). Particulars: S. aureus RN4220 wild type/DeltatarO growth, OD600, 18 h, stronger effect = lower value, screened at 18.75 µg/mL (by protocol).
As to `CCc1cccc(-n2nnc(-c3nsc(NC(=O)c4cccc(OC)c4)n3)c2C)c1`, the survival was inactive: 69%.

Regarding `COc1ccc(CNC(=O)CN(C)S(=O)(=O)c2ccc3nc(C)sc3c2)cc1`, the survival was inactive: 85%.

Regarding `COc1cccc(C(=O)Nc2ccccc2C(=O)OCc2cc(=O)n3c4c(sc3n2)CCCC4)c1`, the survival was inactive: 65%.

Regarding `O=C(c1cccnc1)N1CCN(CCN2C(=O)C3C4C=CC(C4)C3C2=O)CC1` (centres undefined), the survival was inactive: 108%.

In the case of `CC(C)N(C(=O)CSc1cn(CC(=O)N2CCCCCC2)c2ccccc12)C(C)C`, the survival was inactive: 88%.

As to `Cc1coc2c(C)c3oc(=O)c(CCC(=O)NCCc4ccccc4F)c(C)c3cc12`, the survival was inactive: 81%.

Turning to `CCOC(=O)c1ccc(NC(=O)Cn2c(=O)cc(C)c3c(C)nn(-c4ccc(CC)cc4)c32)cc1`, the survival was inactive: 70%.

Turning to `N#Cc1ccc(-c2cccs2)nc1SCc1ccc(Br)cc1`, the survival is inactive: 67%.

Consider `Nc1nc2ccccc2n1C(=O)Cc1ccccc1`, for which the survival is inactive: 111%.

On to `COc1ccc(-n2nc(C(=O)N3CCCCC3C)c3c4ccccc4n(C)c3c2=O)cc1Cl` (centres undefined), for which the survival was inactive: 82%.

Regarding `COc1ccc(Br)cc1S(=O)(=O)Nc1cc(-c2cn3ccccc3n2)ccc1C`, the survival is inactive: 63%.

For the compound `CCOc1ccc(CCNC(=O)c2cn(-c3ccc(OC)cc3)c(=O)c3ccccc23)cc1OCC`, the survival is inactive: 119%.

Turning to `Cc1ccc(C2C=C(c3ccccc3)Nc3nc(NS(=O)(=O)c4ccccc4)nn32)cc1` (centres undefined), the survival was inactive: 83%.

For `COc1cccc(/C=C/c2nc(C#N)c(N3CCC(C(N)=O)CC3)o2)c1`, the survival was inactive: 84%.

For the compound `COc1ccccc1Nc1sc(C(=O)c2ccc(F)cc2)c(N)c1S(=O)(=O)c1ccc(C)cc1`, the survival is inactive: 66%.

Turning to `COc1ccc(NC(=O)Cn2c(=O)n(CCC(=O)NCC3CCCO3)c(=O)c3cc(OC)c(OC)cc32)cc1` (centres undefined), the survival was inactive: 84%.

Take `CN(Cc1ccccc1)C(=O)c1ccc(CSc2nc3cccnc3n2Cc2ccccc2F)cc1`: the survival is inactive: 79%.

In the case of `CCc1ccc(-n2nc(C)c3c(C(=O)N4CCN(c5ccccc5)CC4)cc(C)nc32)cc1`, the survival was inactive: 87%.

As for `COc1ccc(-c2noc(-c3ccc(N4CCCC4)c([N+](=O)[O-])c3)n2)cc1OC`, the survival was inactive: 81%.

Consider `CCOc1cc(C2NC(=O)c3c(sc4c3CCN(C)C4)N2)ccc1OC(=O)c1ccc(Br)cc1` (centres undefined), for which the survival is inactive: 71%.

On to `CCOc1ccc(CNC(=O)C2CCCN(c3nnc(C)c4c(C)n(-c5ccccc5)nc34)C2)cc1` (centres undefined), for which the survival is inactive: 59%.

`CC1C(C(=O)Nc2ccccc2)CCCC1(C)C(=O)O` (centres undefined): the survival is inactive: 116%.

As to `CNC(=O)CSc1nnc(-c2ccco2)n1CC1CCCO1` (centres undefined), the survival was inactive: 100%.

Regarding `CCOc1ccc(NC(=O)Cn2cnc3sc(C)c(S(=O)(=O)N4CCN(c5ccccc5OC)CC4)c3c2=O)cc1`, the survival is inactive: 80%.

On to `COc1ccc(NC(=O)c2ccco2)cc1NC(=O)C(C)(C)Oc1ccc(Cl)cc1`, for which the survival was inactive: 28%.

Consider `O=C1CC2CCCC(CN1)N2CC(=O)NCc1ccco1` (centres undefined), for which the survival is inactive: 104%.

For the compound `Cc1nn2c(C)c(C(=O)NC(C)c3ccccc3)cnc2c1-c1ccc(F)cc1` (centres undefined), the survival was inactive: 121%.

Take `O=C(c1ccc(Cl)cc1)C1CCN(C(=O)N2CCOCC2)CC1`: the survival was inactive: 103%.

For `Cc1cccc(C)c1-n1ncc(C(=O)O)c1C1CCN(C(=O)OC(C)(C)C)CC1`, the survival is inactive: 80%.

Regarding `COc1ccc(C)cc1NC(=O)c1cc2c(=O)n3cccc(C)c3nc2s1`, the survival is inactive: 91%.

As for `CCC(=O)N1CCCc2cc(S(=O)(=O)N3CCC(C(=O)NCc4ccc(F)cc4)CC3)ccc21`, the survival was inactive: 113%.

`COc1ccc(Cl)cc1NC(=O)c1cn(C2CCCC2)c(=O)c2c1c1ccccc1n2C`: the survival was inactive: 73%.

In the case of `Cc1ccccc1C(=O)NCC1COc2ccccc2O1` (centres undefined), the survival is inactive: 103%.

With `Cc1cccc(N(CC(=O)Nc2ccccc2C(F)(F)F)S(=O)(=O)c2ccccc2)c1C`, the survival was inactive: 87%.

As to `O=C(NCC(c1cccs1)S(=O)(=O)c1ccccc1)c1ccc(C(F)(F)F)cc1` (centres undefined), the survival is inactive: 97%.

In the case of `COc1ccc(OC)c(C2CC(=O)Oc3c2c(=O)n(C)c2ccccc32)c1` (centres undefined), the survival is inactive: 78%.

Consider `CC(=NCCN1CCNCC1)C1=C(O)CC(C)(C)CC1=O`, for which the survival was inactive: 116%.

Take `COCCCNC(=O)CSc1nc2c(sc3ccccc32)c(=O)n1CCc1ccc(OC)c(OC)c1`: the survival was active: -6%.

For the compound `Cc1cc(Cl)ccc1OCC(=O)N(Cc1ccco1)Cc1ccccc1F`, the survival was inactive: 87%.

In the case of `COc1ccc(CNC(=O)CSc2ncc3c(n2)-c2ccc(Cl)cc2N(Cc2ccccc2)S3(=O)=O)cc1`, the survival was inactive: 22%.

Turning to `CCOc1ccccc1NC(=O)CCc1c(C)nn(-c2ccc(N3CCCCC3)nn2)c1C`, the survival is inactive: 83%.

As for `COc1ccccc1C(=O)NC1(C(F)(F)F)C(=O)Nc2c1c(=O)[nH]c(=O)n2-c1ccc(F)cc1` (centres undefined), the survival was inactive: 155%.

As to `COc1ccc(C(=O)CSc2ncn(-c3ccccc3)n2)cc1OC`, the survival was inactive: 113%.

Turning to `O=C(Nc1ccc(C(=O)N2CCCCC2)cc1)C1CCCCC1`, the survival was inactive: 98%.

Take `CN(C)CCNC(=O)Cn1ccc2cc(S(=O)(=O)N3CCCCCC3)ccc21`: the survival is inactive: 72%.

On to `Cc1cccc(Cn2c(-c3cccc(Br)c3)nc3ccccc32)c1`, for which the survival is inactive: 124%.

As to `COc1cc(NC(=O)Cn2c(=O)n(Cc3ccco3)c(=O)c3oc4ccccc4c32)cc(OC)c1`, the survival was inactive: 71%.

As for `Cc1ccc(-c2nc(Cn3c(=O)cc(-c4ccccc4)c4c(C)nn(C)c43)c(C)o2)cc1`, the survival was inactive: 120%.

As to `O=C(CSc1nnc(-c2ccc([N+](=O)[O-])cc2)o1)Nc1ccccc1`, the survival was inactive: 84%.

Turning to `Cc1cc(C)cc(NS(=O)(=O)c2ccc3[nH]cc(C(=O)NCc4ccccc4Cl)c(=O)c3c2)c1`, the survival was inactive: 111%.

`CCOc1ccc(C(=O)N2CCC(c3noc(-c4ccc(S(=O)(=O)N5CCCC5)cc4)n3)CC2)cc1`: the survival was inactive: 108%.

In the case of `CCc1c(-c2ccccc2)nc2ccccc2c1C(=O)NCc1ccc(C)cc1`, the survival is inactive: 90%.

Turning to `CN(C1CCCCC1)S(=O)(=O)c1ccc2c(c1)c(=O)c(C(=O)N1CCN(c3ccccc3F)CC1)cn2C`, the survival is inactive: 90%.

Consider `CCOC(=O)C(C)Nc1n[nH]c(=O)[nH]c1=O` (centres undefined), for which the survival was inactive: 127%.

Values taken from PubChem BioAssay AID463173 (ICCB-Longwood Screening Facility, Harvard Medical School, 2010).
